Test results from the supplement of paper PMC11125491.
± gives the standard deviation of the averaged measurements. Growth of baker's yeast expressing single-residue variants of Pneumocystis jirovecii dihydrofolate reductase in 8.8 or 44 µM methotrexate (about 75% and 90% inhibition of the wild type). Selection coefficient per generation; 0 = like wild type, above 0 = less sensitive, below 0 = more sensitive or loss of function. No active / inactive call per row; the paper calls resistant above 0.220 (8.8 µM) or 0.243 (44 µM) together with a significance test. At 44 µM about 15% of codons end with one read or none, so the lowest values are floors (replicate rank correlation 0.74; 0.94 at 8.8 µM).

B1: UniProt A0EPZ9; numbered along this chain (parent)
chain: MDWQKSLTLIVALTLSRGIGLKNDLPWKLKSDMMFFSRVTSGLLVTRSTGQMNVVLMGRKTWESLPAHSRPLKNRINVVISRQEVLDLGGGAYHARSLDDALALLSQIYDSTSKIQLNRVFVIGGGELCKAAMEHSRLNRIIATVIHNEVDCDVFFPIDFRSSQSCLPWRKQDHSVLEAWVGSKVPQGKINENGFIYEFEMWIRDI

Variants of: B1
Experiment: selection coefficient against synonymous wild-type codons (log2 per generation); higher = faster growth than wild type
Conditions: with Saccharomyces cerevisiae carrying the variant on a plasmid
Procedure: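 Pooled growth of yeast carrying single-residue variants of P. jirovecii dihydrofolate reductase (own DFR1 gene intact), two passages at 30 °C, three cultures, sequenced before and after. Codons with under 15 starting reads are left out; codons of one change are averaged.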

Variant	selection coefficient against synonymous wild-type codons (log2) (methotrexate 8.8 µM)	selection coefficient against synonymous wild-type codons (log2) (methotrexate 44 µM)
G42W	-0.414 ± 0.19	-0.0962 ± 0.028
G42Y	-0.155 ± 0.034	-0.303 ± 0.089
L65H	-0.138 ± 0.063	-0.0327 ± 0.052
L65V	-0.477 ± 0.098	-0.314 ± 0.13
L65F	0.132 ± 0.048	0.201 ± 0.047
G182Q	-0.0319 ± 0.036	0.0988 ± 0.11
G182N	-0.0714 ± 0.12	-0.248 ± 0.074
G182P	-0.169 ± 0.063	-0.172 ± 0.11
A103P	-0.51 ± 0.2	-0.137 ± 0.18
E192W	-0.102 ± 0.083	-0.209 ± 0.097
E192V	0.0685 ± 0.024	0.0297 ± 0.062
I141N	-0.767 ± 0.031	-0.307 ± 0.022
V85R	0.14 ± 0.044	0.221 ± 0.06
V85E	0.127 ± 0.03	0.18 ± 0.076
V85S	0.224 ± 0.029	0.258 ± 0.058
C129R	-0.302 ± 0.15	-0.00266 ± 0.17
C129G	0.235 ± 0.022	0.353 ± 0.051
R59A	0.124 ± 0.028	0.09 ± 0.076
L13S	0.461 ± 0.068	0.421 ± 0.075
L9A	0.0578 ± 0.025	-0.0267 ± 0.15
L9N	-0.467 ± 0.061	-0.151 ± 0.18
L9R	-0.545 ± 0.03	-0.225 ± 0.12
G125E	-0.678 ± 0.068	-0.0759 ± 0.51

Variant	selection coefficient against synonymous wild-type codons (log2) (methotrexate 8.8 µM)	selection coefficient against synonymous wild-type codons (log2) (methotrexate 44 µM)
Q51I	-0.175 ± 0.049	-0.00824 ± 0.088
Q51G	0.0123 ± 0.031	-0.0363 ± 0.096
S81N	-0.283 ± 0.074	-0.208 ± 0.12
G126C	0.108 ± 0.013	0.269 ± 0.067
G126F	-0.0814 ± 0.037	-0.12 ± 0.14
G126A	0.357 ± 0.027	0.575 ± 0.042
G126S	0.235 ± 0.034	0.383 ± 0.027
G126K	0.264 ± 0.031	0.318 ± 0.093
M57I	-0.253 ± 0.045	-0.275 ± 0.17
M57G	-0.518 ± 0.048	-0.27 ± 0.054
I190Y	-0.301 ± 0.15	-0.181 ± 0.071
N148S	0.0688 ± 0.078	0.11 ± 0.28
N148C	-0.146 ± 0.049	-0.159 ± 0.092
S41A	-0.0404 ± 0.058	-0.0376 ± 0.053
S41G	0.13 ± 0.042	0.151 ± 0.078
S41D	0.336 ± 0.016	0.371 ± 0.033
S41I	-0.555 ± 0.095	-0.111 ± 0.075
S165A	0.0027 ± 0.046	-0.0718 ± 0.094
S165H	-0.0303 ± 0.067	-0.0357 ± 0.13
S165F	-0.0717 ± 0.01	-0.0551 ± 0.021
I76R	-0.637 ± 0.11	-0.178 ± 0.025
G188D	-0.0282 ± 0.057	0.0271 ± 0.11
R96W	-0.526 ± 0.081	-0.276 ± 0.055

Variant	selection coefficient against synonymous wild-type codons (log2) (methotrexate 8.8 µM)	selection coefficient against synonymous wild-type codons (log2) (methotrexate 44 µM)
R96A	-0.2 ± 0.056	-0.178 ± 0.082
V39C	0.0977 ± 0.018	0.0677 ± 0.023
I158V	-0.00553 ± 0.048	-0.0877 ± 0.092
N118Y	-0.19 ± 0.12	-0.127 ± 0.087
S6A	-0.0126 ± 0.065	-0.0316 ± 0.13
S6D	0.653 ± 0.023	0.705 ± 0.0054
A92M	-0.566 ± 0.12	-0.287 ± 0.019
K130C	-0.393 ± 0.094	-0.324 ± 0.13
E198Q	-0.131 ± 0.067	-0.117 ± 0.024
V54W	-0.482 ± 0.082	-0.277 ± 0.038
K171E	-0.0527 ± 0.032	-0.135 ± 0.051
K28D	-0.0855 ± 0.047	-0.101 ± 0.24
K28I	0.0358 ± 0.039	0.0361 ± 0.01
K28H	0.0117 ± 0.028	-0.00144 ± 0.015
W62C	-0.544 ± 0.16	-0.139 ± 0.14
W62L	-0.475 ± 0.13	-0.236 ± 0.092
W62N	-0.522 ± 0.059	-0.189 ± 0.062
W62I	-0.501 ± 0.059	-0.254 ± 0.034
L98W	-0.398 ± 0.032	-0.317 ± 0.046
L98Q	-0.769 ± 0.032	-0.265 ± 0.11
R82P	0.341 ± 0.03	0.516 ± 0.064
R82Y	-0.583 ± 0.12	-0.28 ± 0.021
R82L	-0.46 ± 0.11	-0.204 ± 0.17

Variant	selection coefficient against synonymous wild-type codons (log2) (methotrexate 8.8 µM)	selection coefficient against synonymous wild-type codons (log2) (methotrexate 44 µM)
D173S	-0.19 ± 0.081	-0.156 ± 0.11
T8W	-0.409 ± 0.082	-0.271 ± 0.17
T8F	-0.376 ± 0.12	-0.28 ± 0.054
Q83T	-0.232 ± 0.079	-0.17 ± 0.078
E63Y	-0.294 ± 0.12	0.0133 ± 0.37
F155L	0.148 ± 0.047	0.0829 ± 0.037
H94G	-0.614 ± 0.17	-0.266 ± 0.049
C152I	0.214 ± 0.033	0.189 ± 0.05
C152F	0.0659 ± 0.065	0.0186 ± 0.044
C152S	0.138 ± 0.034	0.0544 ± 0.057
S48H	-0.0715 ± 0.017	-0.0696 ± 0.052
M33V	0.295 ± 0.043	0.448 ± 0.073
M33R	0.964 ± 0.034	1.29 ± 0.022
G124E	-0.477 ± 0.071	0.246 ± 0.015
G124W	-0.219 ± 0.032	0.307 ± 0.08
S16Y	-0.179 ± 0.14	-0.123 ± 0.11
S16K	-0.096 ± 0.12	-0.0812 ± 0.084
I10E	0.698 ± 0.021	0.889 ± 0.0079
A67T	-0.0397 ± 0.067	-0.00687 ± 0.082
A67Q	-0.0505 ± 0.039	-0.0883 ± 0.16
E84F	-0.624 ± 0.13	-0.233 ± 0.042
E84C	-0.388 ± 0.066	-0.331 ± 0.056
E84S	-0.201 ± 0.06	-0.125 ± 0.11

Variant	selection coefficient against synonymous wild-type codons (log2) (methotrexate 8.8 µM)	selection coefficient against synonymous wild-type codons (log2) (methotrexate 44 µM)
E84D	-0.0452 ± 0.094	-0.0129 ± 0.091
E84K	0.0165 ± 0.01	-0.00768 ± 0.15
R38I	-0.167 ± 0.046	-0.183 ± 0.017
R17S	0.164 ± 0.091	0.13 ± 0.13
R17W	-0.347 ± 0.12	-0.257 ± 0.14
N74P	-0.524 ± 0.097	-0.0448 ± 0.061
V181L	-0.0387 ± 0.056	-0.123 ± 0.11
V122F	-0.359 ± 0.041	-0.168 ± 0.021
V122Q	-0.694 ± 0.12	-0.335 ± 0.078
R204S	-0.176 ± 0.086	-0.231 ± 0.13
K184D	-0.00636 ± 0.032	-0.123 ± 0.054
K184N	-0.0247 ± 0.0083	-0.0633 ± 0.18
K184S	-0.115 ± 0.03	-0.139 ± 0.12
K184Y	-0.189 ± 0.058	-0.184 ± 0.029
H68D	0.129 ± 0.015	0.108 ± 0.088
P168R	-0.128 ± 0.078	-0.193 ± 0.15
P168A	-0.0959 ± 0.08	-0.262 ± 0.14
S64G	-0.143 ± 0.046	-0.202 ± 0.12
P186C	-0.292 ± 0.1	-0.223 ± 0.15
P186I	-0.351 ± 0.15	-0.334 ± 0.021
D151C	-0.288 ± 0.13	-0.158 ± 0.11
D151G	-0.0894 ± 0.063	-0.186 ± 0.08
D151V	-0.291 ± 0.098	-0.186 ± 0.18
